Measurements from PubChem BioAssay AID588855 (National Center for Advancing Translational Sciences (NCATS), 2011).
Among all 410,000 compounds or so, about 5,000 (1.2%) were called active. Inconclusive results, whose numbers are uncertain, are shown with a selection of clear calls. Calls come from the whole dose curve; as a rule, active = well fitted inhibition curve with a large enough effect; inconclusive = small, poorly fitted or top-dose-only effect; inactive = no such curve, though single readings can be large or run the other way. Potencies beside an inconclusive call are fits to weak or partial responses and may not hold up.

assay: qHTS for Inhibitors of TGF-b; conditions: HepG2 CAGA-GFP TGF-b/SMAD3 reporter, GFP fluorescence, 18 h, TGF-beta stimulated, 500 pg/mL final; series mostly up to 46.1 µM; activity, negative = inhibition: at the top concentration; note: nearly all actives have a fitted effect of over 65% in size
Method in brief: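 TGF-beta reporter screen: HEPG2 CAGA-GFP, 1% FBS, 500 pg/mL TGF-beta final, 18 h; per-cell GFP summed per well; curves fitted and categorized by class.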
% is set by controls: 0 for no effect and ±100 for the full control effect; potency is the fitted concentration of half-maximal effect; tags give direction and shape of the fitted curve.

| Structure (SMILES) | Potency | activity, negative = inhibition |
| --- | --- | --- |
| CCS(=O)(=O)N1CC(=O)N(c2cccc(Cl)c2)C(C)(C(=O)NC2CCCCCC2)C1 (centres undefined) | inconclusive: 35.5 µM [inhibitor, single point] |  |
| CCCN(CCC)CCNC(=O)C1CCN(Cc2nc(-c3ccc(Cl)cc3)oc2C)CC1 |  | inactive: 7.1% |
| O=C(Nc1ccc2c(c1)OCCO2)C(CCc1ccccc1)N1CCN(c2ccc(F)cc2)CC1 (centres undefined) | inconclusive: 25.1 µM [inhibitor, single point] |  |
| CCOCC(=O)NC1CCc2cc(OC(=O)COCC)c(OC)c(OC)c2-c2ccc(SC)c(=O)cc21 (centres undefined) | inconclusive: 0.251 µM [inhibitor, full curve, poor fit] |  |
| O=C(NCc1cccnc1)C1CCN(S(=O)(=O)c2cccnc2)CC1 |  | inactive: 1.16% |
| O=C(NCC(c1ccc2c(c1)OCO2)N1CCN(c2ccccc2)CC1)C(=O)Nc1ccc(F)cc1 (centres undefined) |  | inactive: 10.9% |
| CN(C)c1cc[n+](CC(=O)c2ccc(-c3ccccc3)cc2)cc1 | inconclusive: 10 µM [inhibitor, partial curve] |  |
| CN(c1ccc(OCC(=O)NC2CCCC2)cc1)S(=O)(=O)c1cccs1 | inconclusive: 6.31 µM [inhibitor, single point] |  |
| COc1cc(/C=N/Nc2nc(-c3ccc(S(=O)(=O)N(C)C)cc3)cs2)ccc1O | inconclusive: 35.5 µM [inhibitor, single point] |  |
| Cc1ccc(C)c(NS(=O)(=O)c2cc(C(=O)N3CCc4ccccc4C3)ccc2Cl)c1 | inconclusive: 25.1 µM [inhibitor, single point] |  |
| COc1ccccc1C1(CCNS(=O)(=O)c2ccc(C)cc2)CCOC(C(C)C)C1 (centres undefined) | inconclusive: 17.8 µM [inhibitor, partial curve, poor fit] |  |
| Nc1cc(S(=O)(=O)Nc2ccc(Br)cc2)ccc1Cl | inconclusive: 12.6 µM [inhibitor, partial curve, poor fit] |  |
| O=C1NC(c2ccccc2)=C(c2nc3ccccc3s2)C(c2ccc(F)cc2)N1 (centres undefined) | inconclusive: 35.5 µM [inhibitor, single point] |  |
| Cc1cccc(NC(=O)CN2C(=O)N/C(=C\c3ccc(-c4cccc(C(=O)O)c4)o3)C2=O)c1 | inconclusive: 35.5 µM [inhibitor, single point] |  |
| CCOc1ccccc1Nc1ccnc2cc(Cl)ccc12 | inconclusive: 15.8 µM [inhibitor, partial curve, poor fit] |  |
| C/C(=N\NC(=O)c1cccc2ccccc12)c1ccccn1 | active: 3.16 µM |  |
| COc1ccc(C(=O)Nc2ccc(NC(=O)c3cccs3)cc2)cc1OC | inconclusive: 6.31 µM [inhibitor, single point] |  |
| COP1(=O)C=C[C@H](N(Cc2ccccc2)S(=O)(=O)c2ccccc2[N+](=O)[O-])[C@@H](C)O1 (some centres undefined) | inconclusive: 0.112 µM [inhibitor, full curve, poor fit] |  |
| COc1ccc(C(=O)Nc2ccc(N3CCOCC3)cc2)cc1S(=O)(=O)N1CCOCC1 |  | inactive: -23.8% |
| Nc1nc2nc(-c3ccc(OCc4ccccc4)cc3)cc(C(F)(F)F)n2n1 |  | inactive: 7.96% |
| NS(=O)(=O)c1ccc(NC(=O)C(Sc2ccccc2)c2ccccc2)cc1 (centres undefined) | inconclusive: 12.6 µM [inhibitor, single point] |  |
| Cc1nn(C)c(C)c1CN(C)S(=O)(=O)c1ccc2ccccc2c1 |  | inactive: -23.4% |

| Structure (SMILES) | Potency | activity, negative = inhibition |
| --- | --- | --- |
| Cc1ccc(S(=O)(=O)NCC(=O)N/N=C/c2ccc(Cl)cc2Cl)cc1 | inconclusive: 35.5 µM [inhibitor, partial curve, poor fit] |  |
| O=C(Nc1nc(-c2ccccn2)cs1)c1ccccc1-n1cnnn1 | inconclusive: 3.16 µM [inhibitor, partial curve] |  |
| N#Cc1ccc(-c2csc(NC(=O)C3CC3)n2)cc1 |  | inactive: 0.639% |
| CSC(=S)NN=C(C)c1cccc(C)n1 | inconclusive: 2.82 µM [inhibitor, full curve, poor fit] |  |
| CC1CCN(S(=O)(=O)c2cn(CC(=O)N3CCN(C)CC3)c(=O)c3ccccc23)CC1 | inconclusive: 35.5 µM [inhibitor, single point] |  |
| Cc1cccc(NC(=S)N(CCN(C)C)Cc2cc3cc(C)cc(C)c3[nH]c2=O)c1 |  | inactive: 1.55% |
| CC(=O)C[C@H]1c2ccccc2S(=O)(=O)N1c1ccccc1 | inconclusive: 14.1 µM [inhibitor, single point] |  |
| N#Cc1cn(Cc2cccc(Cl)c2)c2ccccc12 |  | inactive: -6.24% |
| CCN1C(=O)[C@H]2[C@@H](c3ccc(-c4ccc5c(c4)OCO5)c(OC)c3)N[C@@](Cc3ccccc3)(C(=O)OC)[C@H]2C1=O | inconclusive: 3.55 µM [inhibitor, single point] |  |
| O=C(N/N=C/c1ccc(N2CCCCC2)o1)c1ccccc1 |  | inactive: -22.8% |
| CCc1nnc(SCc2nc(-c3ccccc3Cl)oc2C)c2cc3sc(C)cc3n12 |  | inactive: -3.36% |
| COc1cccc(NC(=O)NCCCN2CCN(c3ccc(F)cc3)CC2)c1 |  | inactive: 46% |
| CC[C@@H]1CC=C[C@H]2[C@H]1C(=O)N(Cc1ccccc1)[C@H]2c1ccc(OC)c(Cl)c1 | inconclusive: 20 µM [inhibitor, partial curve, poor fit] |  |
| COc1ccc(Cl)cc1-c1cc(C(=O)NCc2cccc(Cl)c2)[nH]n1 | inconclusive: 35.5 µM [inhibitor, single point] |  |
| Cc1c(C(=O)N(Cc2ccc(N(C)C)cc2)CC2CCCO2)oc2ccccc12 (centres undefined) | inconclusive: 4.47 µM [inhibitor, single point] |  |
| COc1cc(/C=N/NC(=O)c2sc(N)c(C#N)c2C)ccc1O | inconclusive: 22.4 µM [inhibitor, single point] |  |
| O=C(CSc1nc(Nc2ccccc2)nc(N2CCOCC2)n1)Nc1ccc([N+](=O)[O-])cc1 |  | inactive: 15.7% |
| CCn1c(/C=C/N(C(C)=O)c2ccccc2)[n+](CC)c2ccc(Cl)cc21 | inconclusive: 11.2 µM [inhibitor, partial curve, poor fit] |  |
| O=C(C[C@@H]1C/C=C\C[C@@H](NC(=O)OCC2c3ccccc3-c3ccccc32)C(=O)OC[C@@H](Cc2ccccc2)NC1=O)NCCO |  | inactive: -0.103% |
| O=C(c1cccc(F)c1)N1CCN(Cc2c[nH]c3ccccc23)CC1 |  | inactive: 12.6% |
| COc1cc(/C=N/N(c2ccccc2)c2ccccc2)ccc1O | inconclusive: 35.5 µM [inhibitor, single point] |  |
| CS(=O)(=O)N1CCc2cc(C(=O)OCC(=O)c3ccccc3)ccc21 |  | inactive: -3.49% |

| Structure (SMILES) | Potency | activity, negative = inhibition |
| --- | --- | --- |
| CCN1CCN(S(=O)(=O)c2ccc(Cl)c(C(=O)N(C)Cc3cccc(Cl)c3Cl)c2)CC1 | inconclusive: 20 µM [inhibitor, single point] |  |
| CC(C)CC1C(=O)N(Cc2cn(Cc3ccco3)nn2)CCS(=O)(=O)N1Cc1ccc(-c2ccc(Cl)cc2)cc1 (centres undefined) | inconclusive: 15.8 µM [inhibitor, single point] |  |
| c1ccc(Nc2nc(N3CCOCC3)c3ccccc3n2)cc1 | inconclusive: 35.5 µM [inhibitor, partial curve, poor fit] |  |
| COc1ccc(CCNC(=S)Nc2cccc3ccccc23)cc1 | inconclusive: 0.562 µM [inhibitor, full curve, poor fit] |  |
| Cc1cc(N2CCN(Cc3nc(-c4ccc(F)cc4)oc3C)CC2)cc(C)n1 | inconclusive: 10 µM [inhibitor, partial curve, poor fit] |  |
| CNC(=S)N/N=C/C1=CCC2CC1C2(C)C (centres undefined) | active: 1.12 µM |  |
| Cc1ccc(NC(=S)NNC(=O)c2cccc([N+](=O)[O-])c2)cc1Cl | inconclusive: 12.6 µM [inhibitor, partial curve, poor fit] |  |
| Cc1cccc(C)c1NC(=O)Cn1c(=O)n(Cc2ccc(C(=O)NCc3ccco3)cc2)c(=O)c2sccc21 | inconclusive: 14.1 µM [inhibitor, partial curve, poor fit] |  |
| C=CCSc1nc(-c2ccccc2)c2cc(Cl)ccc2n1 | inconclusive: 0.251 µM [inhibitor, full curve, poor fit] |  |
| CCOC(=O)Cc1cc(C(=O)Nc2ccc(Br)cc2)sc1-c1ccc(C)cc1 | inconclusive: 31.6 µM [inhibitor, single point] |  |
| CCOc1ccc(-c2c(C(=O)N/N=C/c3ccoc3)nnn2-c2nonc2N)cc1 |  | inactive: 10.1% |
| COc1ccc(C2=Nc3ccccc3NC(=O)C2N(C(=O)c2ccnc3ccccc23)c2ccccc2)cc1 (centres undefined) | inconclusive: 35.5 µM [inhibitor, partial curve, poor fit] |  |
| COc1ccc(-c2noc(CCC(=O)NC3CCN(Cc4ccccc4)CC3)n2)cc1 |  | inactive: -2.62% |
| S=C(NCCc1ccccc1)Nc1ccc(Nc2ccccc2)cc1 | inconclusive: 22.4 µM [inhibitor, single point] |  |
| O=C(COc1ccccc1Br)c1ccc(O)cc1O | inconclusive: 35.5 µM [inhibitor, single point] |  |
| CCc1ccc([C@@H]2CC=C(C(=O)O)[C@H](c3ccc(C)cc3)N2S(=O)(=O)c2ccc(C)cc2)cc1 | inconclusive: 25.1 µM [inhibitor, single point] |  |
| COc1cc(C#Cc2c(-c3cncn3C)n(C)c3ccc(-c4ccc(OC)c(OC)c4)cc23)cc(OC)c1 |  | inactive: -23.4% |
| COCCn1c(SCC(=O)Nc2cc(Cl)ccc2OC)nc2c(c1=O)SC(C)C2 (centres undefined) | inconclusive: 0.562 µM [inhibitor, full curve, poor fit] |  |
| O=C(Nc1ccc(-c2nc3ccccc3s2)cc1)c1cc(-n2cnnc2)ccc1Cl | inconclusive: 6.31 µM [inhibitor, full curve, poor fit] |  |
| O=C(CN1C(=O)/C(=C/c2ccc(C(F)(F)F)cc2)Sc2ccccc21)NCCCN1CCOCC1 | inconclusive: 22.4 µM [inhibitor, single point] |  |
